Test results: PubChem BioAssay AID624417 (National Center for Advancing Translational Sciences (NCATS), 2012)
Hit rate of the full screen: of about 410,000 compounds, about 6,400 (1.6%) were called active. The shares of active, inactive and inconclusive entries below differ from those in the screen. The call rests on the fitted dose curve; in most records, active means well fitted inhibition curve with a large enough effect; inconclusive means small, poorly fitted or top-dose-only effect; inactive means no such curve, though single readings can be large or run the other way. Potencies of inconclusive entries are left out as doubtful fits.

target: Glucagon-like peptide 1 receptor (Homo sapiens) (UniProt P43220); test: qHTS of GLP-1 Receptor Inverse Agonists (Inhibition Mode); details: HEK293 GLP-1R CRE-luciferase, luminescence, 24 h, GLP-1R form is constitutively active; activity change, negative = inhibition: at 38.3 µM (top of the series) unless noted; further: nearly all actives have a fitted effect of over 55% in size
UniProt P43220, sequence (P43220 whole entry, looked up): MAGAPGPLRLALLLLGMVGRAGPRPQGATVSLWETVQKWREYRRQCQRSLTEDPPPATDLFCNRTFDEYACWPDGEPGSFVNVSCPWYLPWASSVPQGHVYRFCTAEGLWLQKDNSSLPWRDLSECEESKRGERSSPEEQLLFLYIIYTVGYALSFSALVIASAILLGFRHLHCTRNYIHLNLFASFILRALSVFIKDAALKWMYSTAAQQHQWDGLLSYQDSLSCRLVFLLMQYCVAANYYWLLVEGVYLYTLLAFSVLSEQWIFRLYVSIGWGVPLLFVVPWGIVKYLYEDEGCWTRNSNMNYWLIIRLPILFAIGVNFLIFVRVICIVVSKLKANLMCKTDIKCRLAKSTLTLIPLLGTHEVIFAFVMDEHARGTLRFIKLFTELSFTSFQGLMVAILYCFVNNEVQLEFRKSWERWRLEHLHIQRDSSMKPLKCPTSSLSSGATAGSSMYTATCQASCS
In short: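 Cells are plated, allowed 12 hours at 37 deg C, then treated with compounds for 24 hr before luciferase detection reagent is added and luminescence is read after 12 min at room temperature. The HEK293 line carries constitutively active GLP-1R with a cAMP-responsive reporter.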
On the % scale 0 is the no-effect control and ±100 the full control effect; potency means the concentration at half of the fitted maximal effect; tags describe the fitted curve by direction and shape.

SMILES	Potency	activity change, negative = inhibition
CC(=O)C(C(c1ccccc1)c1c[nH]c2ccccc12)[N+](=O)[O-] (centres undefined)	inconclusive [inhibitor, partial curve, poor fit]	–
CC[C@H](C)C(C(=O)N1CCN(C(=O)OC(C)(C)C)CC1)n1cc(C(Cc2ccc(O)cc2)NC(=O)OC(C)(C)C)nn1 (some centres undefined)	inconclusive [inhibitor, partial curve, poor fit]	–
O=C(OCc1ccccc1)N1CCCCC1c1c(Cl)cccc1Br (centres undefined)	inconclusive [inhibitor, single point]	–
Cc1ccc(CS(=O)Cc2ccc(C(=O)NCc3ccc(OC(C)C)cc3)o2)cc1 (centres undefined)	inconclusive [inhibitor, partial curve, poor fit]	–
O=C(CSCc1cccc(Cl)c1)N/N=C/c1ccc(OCC(=O)N2CCCCC2)cc1	inconclusive [inhibitor, single point]	–
CCOC(=O)C1=CN(Cc2ccco2)S(=O)(=O)N(CC)C1c1ccc(F)c(Cl)c1 (centres undefined)	inconclusive [inhibitor, partial curve, poor fit]	–
O=C(NCC1CCCO1)c1ccc(-c2ccccc2Cl)o1 (centres undefined)	inconclusive [inhibitor, partial curve, poor fit]	–
CN(C)CC(C)(C)CNC(=S)Nc1cc(S(=O)(=O)N2CCOCC2)ccc1Cl	inconclusive [inhibitor, single point]	–
O=C(CCc1nnc2n(Cc3ccc(Cl)cc3)c(=O)c3ccccc3n12)NCCN1CCCC1	inconclusive [inhibitor, single point]	–
CC1CCCN(C(=O)C(C)Sc2nc(-c3ccccc3)cc(C(F)(F)F)n2)C1 (centres undefined)	inconclusive [inhibitor, single point]	–
O=c1n(-c2ccc(Br)cc2)cnn1-c1ncccc1[N+](=O)[O-]	–	inactive: -20.1%
O=S(=O)(c1cccc(C(F)(F)F)c1)N1CCN(CC(O)COCc2ccccc2)CC1 (centres undefined)	inconclusive [inhibitor, single point]	–
CC1(Cc2cc(Cl)ccc2C(F)(F)F)C(=O)Nc2ccc(OC(F)(F)F)cc21 (centres undefined)	inconclusive [inhibitor, partial curve, poor fit]	–
NC(N)=NCc1cccc(I)c1	inconclusive [inhibitor, single point]	–
Nc1ccccc1/C=C/c1ccccc1N	inconclusive [inhibitor, single point]	–
C=CCN=C1NN=C(c2ccc3c(c2)OCCO3)CS1	–	inactive: -85.5%
O=C(c1ccco1)N(CCC(c1ccccc1)c1ccco1)Cc1ccco1 (centres undefined)	inconclusive [inhibitor, single point]	–
COc1cccc(N(CC(=O)NCCSCc2ccco2)S(=O)(=O)c2ccccc2)c1	inconclusive [inhibitor, partial curve, poor fit]	–
CCCNc1c(NS(=O)(=O)c2ccc3c(c2)CCCC3)c(=O)oc2ccccc12	inconclusive [inhibitor, single point]	–
c1ccc(Cc2ccc(OCCn3ccnc3)cc2)cc1	inconclusive [inhibitor, full curve]	–
Cc1ccccc1C(=O)NC(=S)N(CCO)Cc1ccccc1	–	inactive: -16.1%
CC(=O)c1ccc(NC(=O)C2CCC(CNS(=O)(=O)c3cccc4nsnc34)CC2)cc1 (centres undefined)	–	inactive: 16.7%

SMILES	Potency	activity change, negative = inhibition
Cc1ccc(Nc2ccc([N+](=O)[O-])cn2)cc1Cl	inconclusive [inhibitor, single point]	–
Cc1c(NC(=O)CN2C(=O)c3cccc4cccc2c34)c(=O)n(-c2ccccc2)n1C	inconclusive [inhibitor, single point]	–
CCCNS(=O)(=O)c1cc(-c2nnc3c4ccccc4c(C)nn23)ccc1OC	–	inactive: 22.7%
CCc1ccccc1N1C(=O)N(Cc2cccc(Cl)c2)c2ccccc2S1(=O)=O	inconclusive [inhibitor, single point]	–
COC(=O)C1=C(C)N(c2ccc(OC)cc2)C(C)=C(C(=O)OC)C1c1ccc(OC)cc1	inconclusive [inhibitor, partial curve, poor fit]	–
Cc1csc(=Nc2ccccc2)n1Cc1ccco1	inconclusive [inhibitor, single point]	–
COc1ccc(C(=O)NC(=S)N(Cc2ccccc2)Cc2ccccc2)cc1	inconclusive [inhibitor, single point]	–
O=C(Nc1ccncc1)Nc1ccc(Cl)cc1Cl	inconclusive [inhibitor, single point]	–
CCCCCNC(=O)C(c1ccc(-c2ccccc2)cc1)n1c(=O)c(-c2cc3ccccc3[nH]2)nc2ccccc21 (centres undefined)	–	inactive: 2.49%
COc1ccc(S(=O)(=O)NC2CCCCCC2)c(OC)c1	inconclusive [inhibitor, partial curve, poor fit]	–
CCc1ccc(NCc2cc3ccc(OC)cc3n(CC(=O)Nc3cccc(Cl)c3C)c2=O)cc1	–	inactive: 7.57%
COC(=O)[C@]12CCCCC=C1N(Cc1ccc(Cl)cc1Cl)C(=O)[C@H](CC(=O)N1CCCCC1)C2	inconclusive [inhibitor, single point]	–
COc1cc(/C=C2/C(=O)NN(c3ccc(C)c(Cl)c3)C2=O)cc([N+](=O)[O-])c1O	inconclusive [inhibitor, partial curve, poor fit]	–
CCOC(=O)C1(C)CCCN(C(=O)c2ccc(N(C)C)cc2)C1 (centres undefined)	–	inactive: 1.99%
O=c1c2cc3c(cc2n(Cc2cccc(F)c2)c(=O)n1Cc1nc(-c2ccccc2)no1)OCO3	–	inactive: 13%
COc1ccc(NC(=O)c2c(Cl)n(C)c3ccccc23)cc1	inconclusive [inhibitor, full curve, poor fit]	–
COc1ccccc1C(=O)NC(=S)N1CCc2ccccc21	inconclusive [inhibitor, single point]	–
COc1ccccc1CN1CCN(C(CC(C)C)c2nnnn2Cc2cccs2)CC1 (centres undefined)	inconclusive [inhibitor, single point]	–
CC(=O)OCC(=O)C1(O)CCC2C3CC(C)C4=CC(=O)C=CC4(C)C3=CCC21C (centres undefined)	inconclusive [inhibitor, single point]	–
CC(NC(=O)Nc1ccccc1O)(C(F)(F)F)C(F)(F)F	inconclusive [inhibitor, single point]	–
CN(C(=O)c1cccc(S(=O)(=O)N2CCCCC2)c1)C1CCS(=O)(=O)C1 (centres undefined)	–	inactive: 15.2%
OC1CCCN(CC(O)COc2ccc(-c3ccccc3)cc2)C1 (centres undefined)	inconclusive [inhibitor, partial curve, poor fit]	–

SMILES	Potency	activity change, negative = inhibition
C(=N\Nc1nc(Nc2ccccc2)nc(Nc2ccccc2)n1)/c1cccnc1	inconclusive [inhibitor, single point]	–
Cc1ccc(Cl)cc1-n1c(=O)cc(N2CCN(c3ccccc3)CC2)[nH]c1=O	–	inactive: 16.6%
COC(=O)Sc1nc(N2CCOCC2)c2c(c1C#N)CC(C)(C)OC2	–	inactive: 1.57%
Cc1cc(C)c(-n2c(SCCS(=O)(=O)c3ccc(F)cc3)n[nH]c2=O)c(C)c1	inconclusive [inhibitor, single point]	–
Cc1cc(C)cc(N2C(=O)CC(Sc3nnnn3-c3ccccc3)C2=O)c1 (centres undefined)	inconclusive [inhibitor, single point]	–
COCCn1c(SCC(=O)Nc2ccc(Cl)c(S(=O)(=O)N(C)C)c2)nc2ccccc21	inconclusive [inhibitor, partial curve, poor fit]	–
CCOCN(C(=O)Cn1c(C)nc2ccccc21)c1c(C)cccc1CC	–	inactive: -12.5%
CCCCN(CCCC)CC(O)COc1ccccc1C(=O)Nc1ccccc1 (centres undefined)	inconclusive [inhibitor, partial curve, poor fit]	–
N/C(=N/OC(=O)c1cccc([N+](=O)[O-])c1)c1cccc([N+](=O)[O-])c1	–	inactive: 17.8% [at 7.66 µM]
CN(C)S(=O)(=O)N1CCC(CO)(Cc2cccc(C(F)(F)F)c2)CC1	inconclusive [inhibitor, partial curve, poor fit]	–
NS(=O)(=O)c1ccc(CNC(=O)C2(c3ccc(Cl)cc3)CC2)cc1	–	inactive: 11.7% [at 7.66 µM]
CC(C)(C)C1CCN2CCCC(c3ccc([N+](=O)[O-])cc3)(C1)C21OCCO1 (centres undefined)	–	inactive: -2.92%
CC(C)c1ccc(C2(O)C(=O)Nc3cc(Br)ccc32)c(O)c1 (centres undefined)	inconclusive [inhibitor, partial curve, poor fit]	–
COc1ccc(-c2cc(C(=O)N(C)Cc3ccccc3)c3ccccc3n2)cc1	inconclusive [inhibitor, single point]	–
CN1CCC=C(C(=O)N2c3ccccc3Sc3ccc(Cl)cc32)C1	inconclusive [inhibitor, partial curve, poor fit]	–
Brc1ccc(OCc2nnc(SCC3CCCCC3)o2)cc1	inconclusive [inhibitor, partial curve, poor fit]	–
CC1CN(c2ncnc3c2c(-c2ccccc2)cn3-c2ccc(F)cc2)CC(C)O1 (centres undefined)	active: 3.98 µM	–
Cc1cc(C)cc(OCC(=O)Nc2ccc(-c3nc4ncccc4o3)cc2C)c1	–	inactive: 11.6%
O=C(Nc1nccs1)c1ccc(COc2ccccc2Br)o1	inconclusive [inhibitor, single point]	–
COc1cccc(C2CC(=O)Nc3cc4c(cc32)CCC4)c1 (centres undefined)	inconclusive [inhibitor, partial curve, poor fit]	–
